# Data from the supplement of paper PMC4166925.
# ± gives the standard deviation of the averaged measurements. In all, about 33,000 sequences were measured (“E-score (dimensionless, -0.5 to 0.5)”: median about -0.046, highest 2% from about 0.36 on). The list shows a part of the results.
# System: T1, SpTbr T-box DNA-binding domain (GST fusion)
# T1 sequence: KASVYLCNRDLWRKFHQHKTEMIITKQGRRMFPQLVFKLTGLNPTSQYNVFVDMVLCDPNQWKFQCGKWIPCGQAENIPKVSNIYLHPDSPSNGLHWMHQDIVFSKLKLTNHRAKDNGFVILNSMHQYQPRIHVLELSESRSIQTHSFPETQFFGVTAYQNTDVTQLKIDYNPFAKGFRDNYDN
# Assay: PBM E-score of 8-mer (E-score (dimensionless, -0.5 to 0.5)); Tbr is Tbrain of the sea star Patiria miniata (Pm) or the sea urchin Strongylocentrotus purpuratus (Sp); higher = stronger binding preference; most listed sequences are background and not binding sites
# Details: the construct has about 5 more residues each side
# Method in brief: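 Each ungapped 8-mer received an enrichment E-score from the Universal PBM Analysis Suite, averaged over duplicate arrays. The proteins were Tbr T-box DNA-binding domains, covering the whole T-box plus about five flanking residues, fused to GST and expressed in BL21 E. coli at 20 °C before glutathione affinity purification. Universal Agilent oligonucleotide arrays were made double-stranded by primer extension and incubated with 200 nM protein in PBS (pH 7.5). The arrays were then scanned and quantified, and every 8-mer was scored from probe intensities.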
row,Sequence,PBM E-score of 8-mer
1,AACAAGGA,-0.0954 ± 0.0015
2,GGAGCTCC,-0.3623 ± 0.0034
3,CCTGGGCG,0.118 ± 0.03
4,GCATACTA,-0.126 ± 0.0031
5,CCTACCAG,-0.021 ± 0.048
6,CCTAGCTA,-0.0724 ± 0.033
7,CCGGGTCA,-0.0393 ± 0.042
8,CACATTTA,0.194 ± 0.015
9,CAGAAAGA,-0.0118 ± 0.021
10,TGAAATCA,0.0637 ± 0.11
11,ACCGATGA,0.0444 ± 0.011
12,ATACAACC,-0.00881 ± 0.0022
13,CCCATTCA,-0.0966 ± 0.043
14,ACTTGAAA,-0.19 ± 0.013
15,AGGTTGTG,0.155 ± 0.045
16,ATGGCCGC,-0.0137 ± 0.044
17,CACGTAGA,0.0751 ± 0.027
18,CGTTTGGC,0.108 ± 0.061
19,GAACCCCA,-0.0647 ± 0.055
20,CGACTAAC,0.179 ± 0.0039
21,CCGATCTC,-0.0489 ± 0.059
22,CGGTACAG,-0.159 ± 0.028
23,CGGTTAAG,-0.0569 ± 0.1
24,AAGGACCT,-0.198 ± 0.015
25,AGTGAATC,-0.0392 ± 0.0088

row,Sequence,PBM E-score of 8-mer
1,GCAAGAGC,-0.0244 ± 0.092
2,GAATCCCC,-0.0952 ± 0.086
3,CACATCCG,0.201 ± 0.034
4,ACTCAGTC,0.0017 ± 0.025
5,GCCAGTCA,0.137 ± 0.018
6,CGATGACG,0.0899 ± 0.049
7,AGCATAAT,-0.177 ± 0.0018
8,GCCCTCTA,-0.0814 ± 0.06
9,AAAACATG,-0.0547 ± 0.0052
10,CAGTTACA,0.0479 ± 0.038
11,ACGCTCAG,0.0449 ± 0.0089
12,GCAGGGCA,-0.0201 ± 0.016
13,CTCTCGAC,0.112 ± 0.0017
14,GCGATTCA,0.024 ± 0.0043
15,AGCTGATC,-0.113 ± 0.02
16,CGACGGGA,-0.167 ± 0.043
17,AGTAGTAA,-0.0989 ± 0.016
18,AGATATCG,0.089 ± 0.025
19,AGGGACCG,-0.302 ± 0.12
20,CACTGTGA,0.265 ± 0.025
21,CTCTTGAA,-0.339 ± 0.069
22,AATTAGAC,-0.161 ± 0.047
23,ATGACTAG,-0.0601 ± 0.081
24,AGGAGCGA,-0.0089 ± 0.023
25,ATTGGTCA,0.0393 ± 0.019

row,Sequence,PBM E-score of 8-mer
1,ATCCGGCA,-0.12 ± 0.012
2,ATCATCGA,-0.174 ± 0.089
3,TACGCAAA,-0.107 ± 0.018
4,ATAGAACG,-0.159 ± 0.032
5,AGTCGAGA,-0.0286 ± 0.025
6,TAGTGGCA,0.229 ± 0.025
7,AAAGGCAG,-0.0504 ± 0.012
8,CAACGATC,-0.06557 ± 0.00012
9,TCAACGGA,0.0433 ± 0.055
10,CAACTGGA,0.0228 ± 0.025
11,AAGAATTG,-0.04217 ± 0.00012
12,GATGCGCC,-0.249 ± 0.0032
13,TGAGCCAA,-0.229 ± 0.019
14,GACACACC,0.321 ± 0.016
15,CTATGCAC,-0.0878 ± 0.03
16,ATGGGAGC,-0.168 ± 0.01
17,TAGCCATA,0.00574 ± 0.024
18,ACGCTAGC,0.0224 ± 0.019
19,AGAATTAC,-0.216 ± 0.062
20,GCTAGAAA,-0.0471 ± 0.028
21,GAATGTCA,0.0875 ± 0.014
22,CTCACACA,0.438 ± 0.0081
23,CCAGACCA,-0.035 ± 0.018
24,TGACACAA,0.296 ± 0.0053
25,AATGTGTC,0.413 ± 0.012

row,Sequence,PBM E-score of 8-mer
1,CCATCCCA,-0.0749 ± 0.041
2,CGTTCTCA,0.219 ± 0.015
3,CCCTTAGA,-0.16 ± 0.051
4,CAACCATC,-0.0294 ± 0.026
5,GGTTCGAC,0.08281 ± 0.00073
6,ACTACGCA,0.0779 ± 0.019
7,CAGAGAGC,-0.343 ± 0.032
8,AACGGGCC,-0.178 ± 0.025
9,AGTGCATA,-0.00926 ± 0.039
10,ATCTCCCC,-0.119 ± 0.0032
11,ACAAATTA,-0.0171 ± 0.0047
12,ATGGGTCA,-0.153 ± 0.027
13,CATCAGCC,-0.00502 ± 0.046
14,GATCAAGA,-0.0461 ± 0.025
15,AACGCGGG,-0.0217 ± 0.048
16,AATGAAAC,-0.221 ± 0.044
17,CACCGAGG,0.117 ± 0.067
18,AAACTCGG,-0.224 ± 0.046
19,ACCTCCTG,-0.0283 ± 0.016
20,ACCCTGGG,0.0224 ± 0.046
21,GCGATCCA,-0.0191 ± 0.011
22,AGACGCCA,0.0474 ± 0.026
23,TACCTTCA,0.0858 ± 0.0042
24,CCAGCCAG,-0.0848 ± 0.024
25,AGATATTA,-0.0938 ± 0.019

row,Sequence,PBM E-score of 8-mer
1,CATGATCA,-0.119 ± 0.0063
2,TAAGAGTA,-0.233 ± 0.0029
3,CCAGAGGC,0.00508 ± 0.031
4,CTGCATTA,-0.0986 ± 0.045
5,GGACTGGA,-0.286 ± 0.059
6,AGGCTATA,-0.246 ± 0.079
7,CCGCTTAA,-0.0506 ± 0.011
8,ACCTGGGG,-0.00323 ± 0.044
9,CGACGCCC,0.104 ± 0.07
10,AAAGAGTC,-0.219 ± 0.015
11,AAGTGTCT,0.292 ± 0.033
12,ATTTACAG,-0.0503 ± 0.066
13,ACAGATTC,0.0515 ± 0.029
14,GCACCGCA,-0.0203 ± 0.0064
15,TGTCGACA,0.384 ± 0.01
16,AGGTGAAG,0.215 ± 0.016
17,GTACATAA,-0.0407 ± 0.054
18,GCCGCCCC,0.0574 ± 0.093
19,ACTGCAGC,0.116 ± 0.055
20,ATCGGCAA,0.0555 ± 0.027
21,ACCGCCAC,0.2135 ± 0.0013
22,AAGGAATT,-0.0931 ± 0.045
23,CTGCTGCC,-0.0728 ± 0.033
24,GGTAGACA,-0.025 ± 0.028
25,ATCTCTTA,-0.0572 ± 0.0029

row,Sequence,PBM E-score of 8-mer
1,AGAGTCCC,-0.216 ± 0.068
2,ATGTGCAC,0.117 ± 0.054
3,AAGCAGCT,-0.117 ± 0.061
4,AATAGAGA,-0.097 ± 0.086
5,GCATAGAA,-0.126 ± 0.09
6,CAAGCGAG,0.0572 ± 0.052
7,CATCCCCA,0.0314 ± 0.046
8,ACGAACGG,-0.0269 ± 0.066
9,GTGGAGTA,0.00844 ± 0.023
10,ACGTCTCG,0.0463 ± 0.043
11,CATTAATA,-0.151 ± 0.057
12,AACCGTGG,0.0513 ± 0.049
13,ACCCAGTA,-0.208 ± 0.024
14,CCGCGCGC,0.14 ± 0.088
15,AGCACGAG,0.114 ± 0.06
16,GGTATCAA,0.0885 ± 0.011
17,CGAGAACG,0.3603 ± 0.0018
18,AGGGATCC,-0.181 ± 0.022
19,ATGTCGCG,0.263 ± 0.02
20,GCGAGACC,0.295 ± 0.03
21,ACTTGTTC,-0.108 ± 0.0013
22,GCTGACCA,-0.241 ± 0.031
23,GAAGAACC,-0.131 ± 0.027
24,AATGAATT,-0.0718 ± 0.064
25,CCTCCCGC,-0.00464 ± 0.079

row,Sequence,PBM E-score of 8-mer
1,ACAGGACC,-0.316 ± 0.035
2,AGCATCCC,-0.2222 ± 0.00073
3,CACATGGG,0.0964 ± 0.055
4,AGACCGAT,-0.131 ± 0.041
5,GTTGGGGA,-0.00899 ± 0.045
6,AGTGGGTA,-0.215 ± 0.03
7,CACGCAGA,0.0713 ± 0.028
8,TATGGGAA,-0.231 ± 0.063
9,AAAAACGA,-0.172 ± 0.011
10,ACTACAAC,-0.109 ± 0.058
11,TCTCCGCA,0.0221 ± 0.051
12,CAGGTACC,-0.1398 ± 0.0012
13,AGTCTGCG,-0.0616 ± 0.075
14,GAAGCGTC,0.123 ± 0.0087
15,GAACGGGC,0.00965 ± 0.0033
16,CCTCCTCG,-0.0201 ± 0.02
17,CCCGACAC,0.367 ± 0.017
18,CAAGTTGG,-0.00918 ± 0.035
19,ATCCCATA,-0.0779 ± 0.035
20,ATACTGCG,-0.0126 ± 0.037
21,AGTCACAA,0.125 ± 0.025
22,CATGGTCC,-0.182 ± 0.025
